Reference: article PMC7558026, “Exploring and applying the substrate promiscuity of a C-glycosyltransferase in the chemo-enzymatic synthesis of bioactive C-glycosides” (Nature Communications, 2020)

Experiments:
Type in all cases: biochemical, Aloe barbadensis
AbCGT V183A = settings: pH 7.4, 30 °C, 12 h, Reaction-1 to -3
Method: (§1) The reaction mixture contained 0.5 mM sugar donors (1.0 mM for di-glycosylation), 0.25 mM aglycons, 50 mM Tris-HCl (pH 7.4), and 50‒100 μg of purified AbCGT in a final volume of 100 μL. Due to the instability of some acceptors in the buffer of pH 11.0, the reactions were performed under the physiological conditions (pH 7.4, 30 °C) to compare the catalytic activities of AbGT27 with different substrates under the same conditions. The reactions were performed at 30 °C for up to 12 h and terminated by the addition of 200 μL of ice-cold methanol. Subsequently, samples were centrifuged at 15,000 × g for 30 min to collect the supernatant, and aliquots were analyzed by HPLC-UV/ESIMS. HPLC analysis was performed on a Shiseido CAPCELL PAK C18 MG III column (250 mm × 4.6 mm I.D., 5 μm, Shiseido Co., Ltd., Japan) at a flow rate of 1 mL min^‒1. The mobile phase was a gradient elution of solvents A (0.1% formic acid aqueous solution) and B (methanol). The gradient programs were used for the analysis of the reactions (Supplementary Table 6). The conversion rates of the enzyme reactions were calculated from peak areas of glycosylated products and substrates as analyzed by HPLC. To facilitate inferential statistical analysis, three parallel assays were routinely performed; the means ± SD from triplicate analyses are reported here.
(§2) Site-saturation mutagenesis of AbCGT at residue 183 was performed by PCR using pET28a-AbCGT as a template and the corresponding degenerate primers, which are listed in Supplementary Table 5. PCR products were purified and transformed into Trans1-T1 (DE3) E. coli. The sequences of pET28a-AbCGT mutants were confirmed by sequencing, and transformed into Transetta (DE3) E. coli for heterologous expression following protein purification.

AbCGT V183Y = settings: pH 7.4, 30 °C, 12 h, Reaction-1 to -3
Method: as §1, §2

AbCGT V183G = settings: pH 7.4, 30 °C, 12 h, Reaction-1 to -3
Method: as §1, §2

AbCGT V183T = settings: pH 7.4, 30 °C, 12 h, Reaction-1 to -3
Method: as §1, §2

AbCGT V183P = molecular target: T1, AbCGT V183P (Aloe vera, UniProt A0A7G9P699, V183P)
T1 sequence (A0A7G9P699 1-470 V183P): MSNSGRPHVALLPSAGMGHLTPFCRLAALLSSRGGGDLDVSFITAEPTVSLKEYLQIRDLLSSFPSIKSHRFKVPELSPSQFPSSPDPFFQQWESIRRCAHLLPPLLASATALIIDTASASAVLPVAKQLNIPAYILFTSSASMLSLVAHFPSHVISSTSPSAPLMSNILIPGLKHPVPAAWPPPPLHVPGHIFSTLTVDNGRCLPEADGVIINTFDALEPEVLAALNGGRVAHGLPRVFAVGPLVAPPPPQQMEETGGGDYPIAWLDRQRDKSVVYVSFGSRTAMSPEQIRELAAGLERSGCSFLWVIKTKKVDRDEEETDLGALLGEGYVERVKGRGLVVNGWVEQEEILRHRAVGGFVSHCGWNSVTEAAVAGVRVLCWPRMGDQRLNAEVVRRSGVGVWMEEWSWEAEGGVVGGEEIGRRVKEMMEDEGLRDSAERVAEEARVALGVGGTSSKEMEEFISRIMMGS
Method: as §1, §2

AbCGT V183I = settings: pH 7.4, 30 °C, 12 h, Reaction-1 to -3
Method: as §1, §2

AbCGT V183W = settings: pH 7.4, 30 °C, 12 h, Reaction-1 to -3
Method: as §1, §2

AbCGT V183S = settings: pH 7.4, 30 °C, 12 h, Reaction-1 to -3
Method: as §1, §2

AbCGT V183H = settings: pH 7.4, 30 °C, 12 h, Reaction-1 to -3
Method: as §1, §2

AbCGT V183F = settings: pH 7.4, 30 °C, 12 h, Reaction-1 to -3
Method: as §1, §2

AbCGT V183K = settings: pH 7.4, 30 °C, 12 h, Reaction-1 to -3
Method: as §1, §2

[1] = substrate: O=C1C[C@@](O)(c2ccc(O)cc2)Oc2cc(O)cc(O)c21; test: Kinetic parameters of AbCGT variant V183P; settings: other: V183P, UDP-Glc as donor; pH 7.4; 30.0 °C
Method: Assays were performed in a final volume of 100 μL 50 mM Tris-HCl (pH 7.4) at 30 °C, and contained purified recombinant AbCGT (1.5 μg) and saturating UDP-Glc (5 mM) while varying phloracetophene (11) and phloretin (17) concentrations (5–500 μM), respectively. The reactions terminated by the addition of 200 μL of ice-cold methanol. Subsequently, samples were centrifuged at 15,000 × g for 30 min to collect the supernatant, and aliquots were analyzed by HPLC as described above. All experiments were performed in triplicate. The value of Km was calculated with the method of Lineweaver–Burk plot.
as §2

[2] = V183P, pH 7.4, 30 °C, 12 h, Reaction-1 to -3

With `O=C1CC(O)(c2ccc(O)cc2)Oc2cc(O)cc(O)c21` (centres unmarked) [Compound 23, 2-hydroxynaringenin] the “conversion rates of 2-hydroxynaringenin, C-glycosylation” value (“conversion rates … C-glycosylation” below) (AbCGT V183A) was 84.8% and 86.1% and 84%, the “conversion rates of 2-hydroxynaringenin, O-glycosylation” value (from here on “conversion rates … O-glycosylation”) (AbCGT V183A) was 15.2% and 13.9% and 16% and the “conversion rates … C-glycosylation” value (AbCGT V183Y) was 80.8% and 82% and 82.9%. For the same molecule, the “conversion rates … O-glycosylation” value (AbCGT V183Y) was 19.2% and 18% and 17.1%, the “conversion rates … C-glycosylation” value (AbCGT V183G) was 95% and 95.3% and 94.4% and the “conversion rates … O-glycosylation” value (AbCGT V183G) was 5% and 4.7% and 5.6%. For the same molecule, the “conversion rates … C-glycosylation” value (AbCGT V183T) was 86.9% and 88.8% and 84.9%, the “conversion rates … O-glycosylation” value (AbCGT V183T) was 13.1% and 11.2% and 15.1% and the “conversion rates … C-glycosylation” value (AbCGT V183P; [2]) was 99.7% and 99.5%. For the same molecule, the “conversion rates … O-glycosylation” value (AbCGT V183P; [2]) was 0.3% and 0.5%, the “V183P/yield of C-glycoside(%)” value (AbCGT V183P; reaction-1) was 99.6% and the “V183P/yield of O-glycoside(%)” value (AbCGT V183P; reaction-1) was 0.4%. The “V183P/yield of C-glycoside(%)” value (AbCGT V183P; reaction-2) was 99.5%, the “V183P/yield of O-glycoside(%)” value (AbCGT V183P; reaction-2) was 0.5% and the “V183P/yield of C-glycoside(%)” value (AbCGT V183P; reaction-3) was 99.3%. For the same molecule, the “V183P/yield of O-glycoside(%)” value (AbCGT V183P; reaction-3) was 0.7%, the “conversion rates … C-glycosylation” value (AbCGT V183I) was 84.1% and 81.8% and 80.1% and the “conversion rates … O-glycosylation” value (AbCGT V183I) was 15.9% and 18.2% and 19.9%. The “conversion rates … C-glycosylation” value (AbCGT V183W) was 85.6% and 83.9% and 85.1%, the “conversion rates … O-glycosylation” value (AbCGT V183W) was 14.4% and 16.1% and 14.9% and the “conversion rates … C-glycosylation” value (AbCGT V183S) was 89.4% and 91.2% and 86.4%. The “conversion rates … O-glycosylation” value (AbCGT V183S) was 10.6% and 8.8% and 13.6%, the “conversion rates … C-glycosylation” value (AbCGT V183H) was 91.6% and 90.2% and 88% and the “conversion rates … O-glycosylation” value (AbCGT V183H) was 8.4% and 9.8% and 12%. For the same molecule, the “conversion rates … C-glycosylation” value (AbCGT V183F) was 86.9% and 84.7%, the “conversion rates … O-glycosylation” value (AbCGT V183F) was 13.1% and 15.3% and the “conversion rates … C-glycosylation” value (AbCGT V183K) was 96.4% and 95.9% and 95%. For the same molecule, the “conversion rates … O-glycosylation” value (AbCGT V183K) was 3.6% and 4.1% and 5%.

For `COc1cc(O)c(C(C)=O)c(O)c1` [Compound 13], the “V183P/yield of C-glycoside(%)” value (AbCGT V183P; reaction-1) was 10.8%, the “V183P/yield of O-glycoside(%)” value (AbCGT V183P; reaction-1) was 0% and the “V183P/yield of C-glycoside(%)” value (AbCGT V183P; reaction-2) was 11.3%. The “V183P/yield of O-glycoside(%)” value (AbCGT V183P; reaction-2) was 0%, the “V183P/yield of C-glycoside(%)” value (AbCGT V183P; reaction-3) was 10.8% and the “V183P/yield of O-glycoside(%)” value (AbCGT V183P; reaction-3) was 0%.

In the case of `COc1cc(O)c(C(C)=O)c(OC)c1` [Compound 14], the “V183P/yield of C-glycoside(%)” value (AbCGT V183P; reaction-1) is reported as 0%, the “V183P/yield of O-glycoside(%)” value (AbCGT V183P; reaction-1) is reported as 0% and the “V183P/yield of C-glycoside(%)” value (AbCGT V183P; reaction-2) is reported as 0%. The “V183P/yield of O-glycoside(%)” value (AbCGT V183P; reaction-2) was 0%, the “V183P/yield of C-glycoside(%)” value (AbCGT V183P; reaction-3) was 0% and the “V183P/yield of O-glycoside(%)” value (AbCGT V183P; reaction-3) was 0%.

For `Oc1cc(O)cc(OCCCCCCc2ccccc2)c1` [Compound 22], the “V183P/yield of C-glycoside(%)” value (AbCGT V183P; reaction-1) was 0%, the “V183P/yield of O-glycoside(%)” value (AbCGT V183P; reaction-1) was 0% and the “V183P/yield of C-glycoside(%)” value (AbCGT V183P; reaction-2) was 0%. The “V183P/yield of O-glycoside(%)” value (AbCGT V183P; reaction-2) was 0%, the “V183P/yield of C-glycoside(%)” value (AbCGT V183P; reaction-3) was 0% and the “V183P/yield of O-glycoside(%)” value (AbCGT V183P; reaction-3) was 0%.

`CC(=O)c1c(O)cc(C)cc1O` [Compound 7] was tested, and the “V183P/yield of C-glycoside(%)” value (AbCGT V183P; reaction-1) was 4.7%, the “V183P/yield of O-glycoside(%)” value (AbCGT V183P; reaction-1) was 1% and the “V183P/yield of C-glycoside(%)” value (AbCGT V183P; reaction-2) was 6%. The “V183P/yield of O-glycoside(%)” value (AbCGT V183P; reaction-2) was 0.8%, the “V183P/yield of C-glycoside(%)” value (AbCGT V183P; reaction-3) was 4.4% and the “V183P/yield of O-glycoside(%)” value (AbCGT V183P; reaction-3) was 1.3%.

B1: AbCGT V183P (Aloe vera; V183P) (protein)
chain: T1 sequence (A0A7G9P699 1-470 V183P)
Work on B1 yielded a Km [1] of 316.4 ± 20.9 µM.

Values joined by “and” are separate entries in the source; they are usually repeats but may differ in a detail not shown here. Identical values can stand only once. Like-named read-outs stand apart in the source and are kept apart here.
